Test results as given in PubChem BioAssay AID493208 (National Center for Advancing Translational Sciences (NCATS), 2011).
About 340 (0.77%) of roughly 44,000 compounds were called active. The shares of active, inactive and inconclusive entries below differ from those in the screen. Calls come from the whole dose curve; as a rule, active = well fitted inhibition curve with a large enough effect; inconclusive = small, poorly fitted or top-dose-only effect; inactive = flat fitted curve, though single readings scatter. Potencies of inconclusive entries are left out as doubtful fits.
Potency is the fitted concentration of half-maximal effect; tags give direction and shape of the fitted curve.

Test: Acumen qHTS Assay for Inhibitors of the mTORC1 Signaling Pathway in MEF (Tsc2-/-, p53-/-) Cells: Sytravon; note: nearly all actives have a fitted effect of over 50% in size;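 for activity change, negative = inhibition: plate controls were DMSO for no effect and rapamycin for full effect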
Conditions: phospho-rpS6 immunofluorescence/PI, 24 h; series mostly up to 38.3 µM; activity change, negative = inhibition: at the top concentration
Method in brief: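 Plate MEFs (Tsc2-/-, p53-/-, empty vector) in DMEM/10% FBS; after 24 h add compound, incubate 24 h at 37 degree Celsius; fix in PFA/TX-100, block, stain phospho-rpS6 and 10 uM PI; scan at 488 nm; report % positive cells.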
With CCOc1ccc(CNC(=O)c2ccc(NC(=O)N3CCCCc4ccccc43)cc2)cc1 the “activity change, negative = inhibition” value was inactive: 1.21%. With CCNc1nc2c(c(=O)n(C)c(=O)n2C)n1Cc1ccc(F)cc1 the Potency was inconclusive [falling, partial curve, poor fit]. In the case of O=C(Cn1cc(C(=O)c2ccco2)c2ccccc21)Nc1ccccc1C(F)(F)F, the “activity change, negative = inhibition” value is reported as inactive: -18.8%. In the case of COC(=O)c1c(C)oc2ccc(N(C(=O)c3ccncc3)S(=O)(=O)c3ccc(Br)cc3)cc12, the Potency is reported as inconclusive [falling, partial curve, poor fit]. With CCOC(=O)c1ccc(N2C(=O)c3n[nH]c(-c4ccco4)c3C2c2ccccc2OC)cc1 (configuration not stated) the Potency was inconclusive [falling, single point]. In the case of CCOC(=O)c1c(C)oc2nc(C)nc(NCCc3ccc(Cl)cc3)c12, the Potency is reported as inconclusive [falling, partial curve, poor fit]. For CC(C)c1ccc(NC(=O)Cn2nnc(C(=O)NCc3ccc4c(c3)OCO4)c2N)cc1, the Potency was inconclusive [falling, single point]. For Cc1cccc(N(C)C(=O)CCS(=O)(=O)c2ccc3c(c2)n(C)c(=O)c(=O)n3C)c1, the “activity change, negative = inhibition” value was inactive: -5.88%. For CCN(CC)CCCNC(=O)c1sc2nc3n(c(=O)c2c1C)CCCCC3, the Potency was inconclusive [falling, partial curve, poor fit]. For COc1ccc(CNC(=O)CCCn2ccc3cc(S(=O)(=O)N4CCCC4)ccc32)cc1, the “activity change, negative = inhibition” value was inactive: -17.7%. With Cc1ccc(-n2ncc3c(NCCCN(C)C)ncnc32)cc1Cl the Potency was inconclusive [falling, partial curve, poor fit]. In the case of Cc1ccc(NC(=O)c2c(C)oc3ccc(O)c(CN4CCN(Cc5ccccc5)CC4)c23)cc1, the Potency is reported as inconclusive [falling, single point]. With CCCCN1C(=O)c2[nH]nc(-c3ccccc3O)c2C1c1ccc(OCc2ccccc2)c(OC)c1 (configuration not stated) the Potency was inconclusive [falling, single point]. For Cc1c(C(=O)OC2CCC(C)CC2)[nH]c2c1C(=O)CC(c1ccc(F)cc1)C2 (configuration not stated), the Potency was inconclusive [falling, partial curve, poor fit]. With CSc1ccc(C2c3c(-c4ccccc4O)n[nH]c3C(=O)N2Cc2ccncc2)cc1 (configuration not stated) the Potency was inconclusive [falling, single point]. In the case of Cc1cccc(C(=O)NCCc2nc3ccccc3n2CCC(C)C)c1, the Potency is reported as inconclusive [falling, single point]. With O=C(CSc1nccn1Cc1ccc(F)cc1)Nc1ccc2c(c1)OCCO2 the Potency was inconclusive [falling, partial curve, poor fit].
